In the BET-seq Pho4 binding data (Le et al. 2018):
The other results are listed elsewhere or left out. The energies were worked out here from pooled read counts, against the library average; single values are noisy.

Molecular target: T1, Pho4 (S. cerevisiae) (UniProt P07270)
T1 sequence: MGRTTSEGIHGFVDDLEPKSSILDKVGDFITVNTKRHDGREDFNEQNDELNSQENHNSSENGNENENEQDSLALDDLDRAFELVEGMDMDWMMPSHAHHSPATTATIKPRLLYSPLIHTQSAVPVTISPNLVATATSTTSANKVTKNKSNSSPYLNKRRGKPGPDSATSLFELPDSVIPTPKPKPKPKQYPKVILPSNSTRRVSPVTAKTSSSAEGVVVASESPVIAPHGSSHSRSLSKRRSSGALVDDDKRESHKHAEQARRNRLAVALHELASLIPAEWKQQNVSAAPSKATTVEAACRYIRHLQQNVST
Test: relative binding free energy (BET-seq); higher = weaker binding
Conditions: reference: library average

Relative binding free energy, -0.11 kcal/mol:
AGTATCACGTGGGGCA
ATCGGCACGTGGACGG
TTATGCACGTGGTATG

Relative binding free energy, -0.12 kcal/mol:
ATTTGCACGTGCGTGC

Relative binding free energy, 0.31 kcal/mol:
GCGTTCACGTGTTGAA

Relative binding free energy, -0.04 kcal/mol:
GGGGACACGTGTTAGG
GTGTACACGTGGGGTT
TATGACACGTGGCAGG

Relative binding free energy, 0.14 kcal/mol:
CGCGGCACGTGAAGGT
GTGGTCACGTGTACTG
GTGTTCACGTGCATGT
AGAGTCACGTGGTGGG
GGTCTCACGTGGGGCG

Relative binding free energy, -0.03 kcal/mol:
AAGTGCACGTGGGCTT
TAGTACACGTGGGTAT
CGGGTCACGTGGGAAG
AGAGTCACGTGTGCTT

Relative binding free energy, -0.13 kcal/mol:
ATTCGCACGTGCTGGT

Relative binding free energy, 0.45 kcal/mol:
TTAAACACGTGAAGGA

Relative binding free energy, 0.2 kcal/mol:
GTGTTCACGTGGTCAG
TGGATCACGTGCAGGA
TGGGTCACGTGACTAA
GAGGTCACGTGTTATG
GTTTACACGTGCTGGT
GTGGACACGTGAGGGA

Relative binding free energy, -0.07 kcal/mol:
CTGGGCACGTGCATGG
TGGGGCACGTGTGCTG
CGGGGCACGTGTAAGT
TTATGCACGTGATCTT
AGTAGCACGTGTTTGG
CGCTGCACGTGGTGTG
ATTGTCACGTGGGTCT

Relative binding free energy, 0.32 kcal/mol:
GTGATCACGTGTGGCA

Relative binding free energy, 0.24 kcal/mol:
CTTAACACGTGATGTA
AGGCTCACGTGTTATG
CATGTCACGTGAAGTG
GTCTGCACGTGATTTT

Relative binding free energy, 0.13 kcal/mol:
GTTATCACGTGTACTT
GGATGCACGTGGAAGT
GTGTACACGTGTCGTG
GTGCTCACGTGGCGTG
GGATACACGTGTGTGA

Relative binding free energy, 0.28 kcal/mol:
GGGTTCACGTGGAGGC
TTTCTCACGTGGCTTT
TGGGTCACGTGGAAAT

Relative binding free energy, 0.47 kcal/mol:
GTGTTCACGTGAGTTC

Relative binding free energy, -0.15 kcal/mol:
TAAGCCACGTGGGTGT
CGTTGCACGTGGCAGG
CCAGGCACGTGTTGGT
GGGGCCACGTGGGGCA

Relative binding free energy, -0.19 kcal/mol:
TGGGGCACGTGCAGGA

Relative binding free energy, 0.1 kcal/mol:
ATGGTCACGTGTTTGC
GTGGTCACGTGGCCTT
TTATTCACGTGTCTTA
AGAGTCACGTGGATCG
TCATACACGTGGAGGT
AGTTACACGTGGTCGA
CGTCTCACGTGTGTTT
TTGGTCACGTGTTACG
GCAGTCACGTGGTGAG
ACGCTCACGTGGTGGT
TATGTCACGTGGTCTC

Relative binding free energy, -0.24 kcal/mol:
TCTGGCACGTGGGTAT
AGTCCCACGTGGTGGG

Relative binding free energy, 0.19 kcal/mol:
TGGGGCACGTGAGATA
AAATTCACGTGGTGGC
TTTAACACGTGAATGT
TTTTTCACGTGCGCGA
GGGTGCACGTGAGGCG

Relative binding free energy, -0.26 kcal/mol:
GGGAGCACGTGGGGGA

Relative binding free energy, -0.14 kcal/mol:
GTTGCCACGTGGGTGC
AGTGCCACGTGTTTTA
TAGGACACGTGGTCAG
TGTGGCACGTGGCCCT

Relative binding free energy, -0.25 kcal/mol:
CGTAGCACGTGGGGGA
TATGCCACGTGGGGGA
TTTGCCACGTGTGCGG

Relative binding free energy, -0.08 kcal/mol:
TATAACACGTGTGATG

Relative binding free energy, 0.18 kcal/mol:
CGGGTCACGTGTACGT
TGAAGCACGTGAGGAT
TCGGTCACGTGTGAGT
AGTTTCACGTGTGTGA
CTGTTCACGTGTTAGT

Relative binding free energy, 0.4 kcal/mol:
TGTTTCACGTGGACGG

Relative binding free energy, 0.25 kcal/mol:
GTATCCACGTGTTCGT
TGATGCACGTGAAATA
TATGACACGTGAGTGG
GGAGTCACGTGTGATG
GGTATCACGTGTTTAT

Relative binding free energy, -0.2 kcal/mol:
GGGAGCACGTGCGGGC

Relative binding free energy, -0.29 kcal/mol:
ATGCCCACGTGGGTGT

Relative binding free energy, 0.06 kcal/mol:
GGGGCCACGTGTGTGC
TGGACCACGTGTATGG
GTAGGCACGTGCAAGT
GATTCCACGTGGGTTT

Relative binding free energy, 0.17 kcal/mol:
GGGGTCACGTGTCTTA
AGTAGCACGTGAGTAT
TGGCTCACGTGTGGCT
ATAGTCACGTGTCAGT

Relative binding free energy, 0.29 kcal/mol:
TATTTCACGTGTGAGC
TGATTCACGTGATCGG
ATCATCACGTGAGTGT

Relative binding free energy, -0.28 kcal/mol:
CATGGCACGTGGTGGC

Relative binding free energy, 0.12 kcal/mol:
TCTTACACGTGAGTGT
TTGGACACGTGTCGGC
AGTCACACGTGTCGTG
GAGTACACGTGGGATG
CATGTCACGTGTTTTT
TGCAGCACGTGAGGTG
GCGGGCACGTGTAGAA

Relative binding free energy, 0.21 kcal/mol:
AGAATCACGTGTATAG
TGGTGCACGTGAAGTT
AGGCACACGTGATGTG
TGGTTCACGTGGTTAT

Relative binding free energy, 0.34 kcal/mol:
TACTGCACGTGAATTG
GGGATCACGTGAATGT
TAATTCACGTGAGTTT

Relative binding free energy, 0 kcal/mol:
GTATGCACGTGTGTAT
GTTATCACGTGGGCCT
TGTTCCACGTGCGTTG
AAGAGCACGTGTTTAA

Relative binding free energy, -0.16 kcal/mol:
TGCGCCACGTGGGTTA
GTTGGCACGTGGTACA

Relative binding free energy, 0.09 kcal/mol:
TTTGGCACGTGTGATC
CGTTGCACGTGATGCA
GGTTACACGTGGCGGA

Relative binding free energy, 0.02 kcal/mol:
TGGTCCACGTGGAGAT
CTGGACACGTGGTATT
TGGTACACGTGCGAGG
ATTTACACGTGCGTGG
GTCATCACGTGGTTGA
CAAGACACGTGGTTGG
TAATGCACGTGTATAA
ACGGTCACGTGTTGGA

Relative binding free energy, -0.3 kcal/mol:
TAGGGCACGTGCTTTG

Relative binding free energy, -0.1 kcal/mol:
AGGTCCACGTGCTGGT
TAGTCCACGTGTTAGG

Relative binding free energy, 0.07 kcal/mol:
ATTTACACGTGTACGT
ACGGTCACGTGCTGGG
CGTTGCACGTGTTATT
GTTAGCACGTGTACTT
GGGACCACGTGATGGG
GAAGTCACGTGGGTTC
TATATCACGTGGGTTT

Relative binding free energy, 0.11 kcal/mol:
TTACTCACGTGGTAAT
TATATCACGTGTAATT
TGGCTCACGTGTATTA
GAGTGCACGTGATTGA

Relative binding free energy, -0.01 kcal/mol:
TAATGCACGTGGAGGT
CTGGGCACGTGTTGGG
GTGCACACGTGGGAAG
AGTAACACGTGGTTGG

Relative binding free energy, 0.44 kcal/mol:
GACTTCACGTGGTTAG
GTGATCACGTGATGTT

Relative binding free energy, 0.27 kcal/mol:
TCAATCACGTGTGGGT

Relative binding free energy, 0.05 kcal/mol:
GAACACACGTGGGGGG
AAAGGCACGTGTGAAG
AACTTCACGTGGGGTG
CTGGTCACGTGGTCGT
TTTATCACGTGTTACG
CATATCACGTGGTGAG

Relative binding free energy, -0.18 kcal/mol:
ATAAGCACGTGTTTAA
TTGGCCACGTGGTGTA
GTCCGCACGTGGGGGC

Relative binding free energy, -0.31 kcal/mol:
TGCAGCACGTGGGTGT
CGGGGCACGTGGGCCG

Relative binding free energy, 0.08 kcal/mol:
TAGCACACGTGTTGGT
GTCGGCACGTGGATGA
TATGACACGTGTTTCT
TTAATCACGTGCTTTA

Relative binding free energy, 0.49 kcal/mol:
GGGTTCACGTGTGGAT

Relative binding free energy, 0.22 kcal/mol:
GGTTCCACGTGTCTTT
CATTTCACGTGTGGGA
TTATTCACGTGCGTGG
GATTGCACGTGTGATG
GAGGACACGTGTGGTC

Relative binding free energy, 0.38 kcal/mol:
AGTTTCACGTGGAGAG
CGGTTCACGTGAAGGG
GCGTTCACGTGGTTAG
AATTACACGTGAATTA

Relative binding free energy, 0.16 kcal/mol:
AATATCACGTGTGCAG
TGACACACGTGAGGGG

Relative binding free energy, 0.3 kcal/mol:
GTTTTCACGTGTGTCC

Relative binding free energy, 0.01 kcal/mol:
TGTAACACGTGGTAGT

Relative binding free energy, 0.41 kcal/mol:
TATATCACGTGGAATC
AGGATCACGTGAGGGT

Relative binding free energy, 0.26 kcal/mol:
TTCAGCACGTGAAAGG
CAAGTCACGTGCAGGG
GGAGTCACGTGTTTTG

Relative binding free energy, 0.04 kcal/mol:
GTGTGCACGTGATGAA
CGGCACACGTGGTTGG
ATTCACACGTGTTTAT
TAAGACACGTGTTTTG

Relative binding free energy, 0.03 kcal/mol:
TTGGACACGTGTCGGG
TAAACCACGTGTTGTT
AGCGGCACGTGCGGAT
TGTGTCACGTGGTAAT
TTGTGCACGTGTGGTG

Relative binding free energy, -0.21 kcal/mol:
AATGACACGTGGGGCT
ATAGGCACGTGCTGGT

Relative binding free energy, -0.02 kcal/mol:
ATGGCCACGTGTATTG
GGCTGCACGTGGGTTC
ATTAACACGTGTATAG
TGGAACACGTGGGAAT
GTACGCACGTGTGCGG
GTGGACACGTGCTATG
GAATACACGTGTTGTG

Relative binding free energy, -0.05 kcal/mol:
ATTTGCACGTGGGGAG
AGGTGCACGTGATAGG
CTTGACACGTGTTTAT
TGGAGCACGTGATATG

Relative binding free energy, 0.23 kcal/mol:
CTTAGCACGTGAGGGA

Relative binding free energy, -0.06 kcal/mol:
GGGGCCACGTGTAGGC

Relative binding free energy, 0.33 kcal/mol:
GGGTTCACGTGGTATT
AAGTTCACGTGATGGC

Relative binding free energy, 0.15 kcal/mol:
GTTATCACGTGGTGGG
TTTTACACGTGCCTTT
TCAAACACGTGAGGGG
CAAGTCACGTGATGTG
AGAATCACGTGTTCGT
TGGCTCACGTGGGAGC
ATCTTCACGTGCGTGT
TTTATCACGTGTTTAT
AGTTACACGTGTTTTT

Relative binding free energy, -0.09 kcal/mol:
TGAGGCACGTGTAGCA
GGTCGCACGTGGTGGA
TTGGGCACGTGACTGG
CGGTGCACGTGGTGTC
TACGGCACGTGTGTTA

Relative binding free energy, 0.35 kcal/mol:
TATTTCACGTGGAGGC
